Source: the antibiotic and cytotoxicity screens of Wong et al. (2023)
The other results are listed elsewhere or left out.

How the values were obtained:
HSkMC = human skeletal muscle cells; experiment: cytotoxicity call (relative viability < 0.9); settings: 10 µM
HepG2 = experiment: cytotoxicity call (relative viability < 0.9); settings: 10 µM
S. aureus RN4220 = experiment: growth inhibition call (relative growth <= 0.2); settings: 50 µM

Row | Structure (SMILES) | cytotoxicity call (HSkMC) | cytotoxicity call (HepG2) | growth inhibition call (S. aureus RN4220)
1 | Cc1noc(C)c1S(=O)(=O)Nc1ccc2c(c1)CC(=O)N([C@@H](C)CO)C[C@H](C)[C@@H](CN(C)Cc1ccncc1)O2 | inactive | inactive | inactive
2 | COc1ccc(S(=O)(=O)N(C)C[C@@H]2Oc3ccc(NS(=O)(=O)c4c(C)noc4C)cc3CC(=O)N([C@@H](C)CO)C[C@@H]2C)cc1 | inactive | inactive | inactive
3 | CCC(=O)N[C@@H]1C=C[C@@H](CC(=O)OC)O[C@H]1CO | inactive | inactive | inactive
4 | C[C@H]1CN([C@@H](C)CO)C(=O)c2cc(C#CC3(O)CCCC3)cnc2O[C@H]1CN(C)C(=O)CN(C)C | inactive | inactive | inactive
5 | C[C@@H]1CN([C@@H](C)CO)C(=O)c2cccc(NS(=O)(=O)c3cccs3)c2O[C@@H]1CN(C)S(=O)(=O)c1cccs1 | inactive | inactive | inactive
6 | O=C(CCBr)N1CCN(C(=O)CCBr)CC1 | inactive | inactive | inactive
7 | COc1cccc(CN(C)C[C@H]2OCc3ccccc3-c3c(n(C)c4ccccc34)C(=O)N([C@H](C)CO)C[C@H]2C)c1 | inactive | inactive | inactive
8 | CCC(=O)N1C[C@]2(C1)CN([C@H](CO)c1[nH]c3cc(ccc3c12)OC)C(=O)CN1CCOCC1 | inactive | inactive | inactive
9 | C[C@H](CO)N1C[C@H](C)[C@H](CN(C)C(=O)CN2CCOCC2)Oc2ncc(C#CCN(C)C)cc2C1=O | inactive | inactive | inactive
10 | C[C@H](CO)N1C[C@H](C)[C@H](CN(C)C(=O)NC2CCCCC2)OCCCC[C@H](C)Oc2ccc(NC(=O)c3ccccc3)cc2C1=O | inactive | inactive | inactive
11 | COc1ccccc1CNC(=O)C[C@@H]1C[C@H]2c3cc(NC(=O)C4CCOCC4)ccc3O[C@H]2[C@H](CO)O1 | inactive | inactive | inactive
12 | O=C(O)CCC(=O)N1CC(=O)Nc2ccccc21 | inactive | inactive | inactive
13 | COc1ccc(S(=O)(=O)N(C)C[C@@H]2OCCCC[C@@H](C)Oc3ccc(NC(=O)NC4CCCCC4)cc3C(=O)N([C@H](C)CO)C[C@H]2C)cc1 | inactive | active | inactive
14 | O=C(N[C@H]1C=C[C@@H](CC(=O)N2CCOCC2)O[C@H]1CO)c1ccc2c(c1)OCO2 | inactive | inactive | inactive
15 | NCCN1CCC(C(=O)O)CC1 | inactive | inactive | inactive
16 | COc1ccc(S(=O)(=O)Nc2ccc3c(c2)C(=O)N([C@H](C)CO)C[C@H](C)[C@H](CN(C)Cc2ccc4c(c2)OCO4)OCCCC[C@@H](C)O3)cc1 | inactive | inactive | inactive
17 | O=c1nc(Nc2ccccc2)[nH]c(=O)[nH]1 | inactive | inactive | inactive
18 | CCOC(=O)COc1ccc2c(=O)cc(-c3ccccc3)oc2c1 | inactive | active | inactive
19 | Cc1noc(C)c1NC(=O)Nc1ccc2c(c1)C(=O)N([C@@H](C)CO)C[C@H](C)[C@@H](CN(C)C(=O)Cc1ccccc1)OCCCC[C@@H](C)O2 | inactive | inactive | inactive
20 | COc1ccc(-c2cc(=O)c3c(OC)c(OC)c(OC)c(OC)c3o2)cc1 | inactive | inactive | inactive
21 | C[C@@H]1CN([C@@H](C)CO)S(=O)(=O)c2ccc(C#Cc3ccc(F)cc3)cc2O[C@@H]1CN(C)S(C)(=O)=O | inactive | inactive | inactive
22 | Cc1ccc(S(=O)(=O)Nc2cccc3c2O[C@@H](CN(C)S(=O)(=O)c2ccccc2)[C@@H](C)CN([C@@H](C)CO)C3=O)cc1 | inactive | inactive | inactive
23 | C[C@H](CO)N1C[C@H](C)[C@H](CN(C)C(=O)C2CCCCC2)Oc2cc(C#CC(C)(C)O)ccc2S1(=O)=O | inactive | inactive | inactive
24 | C[C@@H]1CN([C@H](C)CO)C(=O)Cc2cc(NC(=O)CCCCCC(=O)Nc3ccccc3N)ccc2O[C@@H]1CN(C)C(=O)Nc1ccc(C(F)(F)F)cc1 | inactive | inactive | inactive

Row | Structure (SMILES) | cytotoxicity call (HSkMC) | cytotoxicity call (HepG2) | growth inhibition call (S. aureus RN4220)
25 | COCC(=O)N(C)C[C@@H]1Oc2cc(-c3ccc(OC)cc3)ccc2S(=O)(=O)N([C@H](C)CO)C[C@H]1C | inactive | inactive | inactive
26 | Cc1noc(C)c1S(=O)(=O)Nc1ccc2c(c1)C(=O)N([C@@H](C)CO)C[C@@H](C)[C@H](CN(C)C(=O)Nc1ccc(C(F)(F)F)cc1)OCCCC[C@@H](C)O2 | inactive | inactive | inactive
27 | C[C@H]1CN(C(=O)N(C)C)CCN1C(=O)N(C)C | inactive | inactive | inactive
28 | C[C@@H]1CCCCO[C@@H](CN(C)Cc2ccccc2)[C@H](C)CN([C@H](C)CO)C(=O)c2cc(NC(=O)c3ccccc3)ccc2O1 | inactive | inactive | inactive
29 | C[C@@H]1CN([C@H](C)CO)C(=O)c2cc(NS(=O)(=O)c3ccc(Cl)cc3)ccc2O[C@@H](C)CCCCO[C@@H]1CN(C)C(=O)C1CCCCC1 | inactive | active | inactive
30 | C[C@@H]1CCCCO[C@@H](CN(C)Cc2ccc(C(=O)Nc3ccccc3N)cc2)[C@@H](C)CN([C@H](C)CO)C(=O)c2cc(NC(=O)Nc3ccc(C(F)(F)F)cc3)ccc2O1 | active | inactive | inactive
31 | C[C@@H]1CN([C@H](C)CO)C(=O)c2cc(C#CC3CC3)cnc2O[C@@H]1CN(C)S(=O)(=O)c1cccc(F)c1 | inactive | inactive | inactive
32 | C[C@@H]1CN([C@@H](C)CO)C(=O)c2cccc(NC(=O)c3cnccn3)c2O[C@@H]1CN(C)C(=O)Nc1ccc2c(c1)OCO2 | inactive | inactive | inactive
33 | COc1cccc(S(=O)(=O)N[C@@H]2CC[C@@H](CC(=O)NC3CCC3)O[C@H]2CO)c1 | inactive | inactive | inactive
34 | O=C(C[C@@H]1CC[C@@H]2[C@H](COC[C@H](O)CN2C(=O)Nc2cccc(F)c2)O1)NCCCN1CCOCC1 | inactive | inactive | inactive
35 | C[C@H](CO)N1C[C@H](C)[C@H](CN(C)S(=O)(=O)c2ccccc2)Oc2ccc(NS(=O)(=O)c3cn(C)cn3)cc2C1=O | inactive | inactive | inactive
36 | COCC(=O)Nc1ccc2c(c1)C(=O)N(C)C[C@H](OC)[C@@H](C)CN(Cc1cccc(F)c1)[C@@H](C)CO2 | inactive | inactive | inactive
37 | C[C@H](CO)N1C[C@H](C)[C@@H](CN(C)Cc2ccc(Cl)c(Cl)c2)OCc2ccccc2-c2ccccc2C1=O | inactive | inactive | inactive
38 | C[C@@H]1CN([C@H](C)CO)C(=O)c2cc(NC(=O)Nc3ccc4c(c3)OCO4)ccc2O[C@@H](C)CCCCO[C@H]1CN(C)Cc1ccc(Cl)c(Cl)c1 | inactive | active | inactive
39 | COc1ccc(CCNS(=O)(=O)c2cn(C)c(=O)n(C)c2=O)cc1 | inactive | inactive | inactive
40 | CN1C(=O)c2cc(NC(=O)c3cccc(C#N)c3)ccc2OC[C@H]2O[C@@H](CC(=O)NCCN3CCCC3)CC[C@@H]21 | inactive | inactive | inactive
41 | Cc1ccc(S(=O)(=O)N(C)C[C@H]2Oc3c(NS(=O)(=O)c4ccc(F)cc4)cccc3C(=O)N([C@@H](C)CO)C[C@@H]2C)cc1 | inactive | inactive | inactive
42 | COc1ccccc1-c1cccc(-c2nc(C(=O)Nc3nccs3)cc3c2[C@@H](CCO)N(C(=O)CC2CC2)C3)c1 | inactive | active | inactive
43 | C[C@@H]1CN([C@@H](C)CO)C(=O)Cc2cc(NC(=O)CCC(F)(F)F)ccc2O[C@@H]1CN(C)Cc1ccc(Cl)c(Cl)c1 | inactive | active | inactive
44 | COc1ccc(CN(C)C[C@@H]2OCCCC[C@H](C)Oc3ccc(NC(=O)C4CCCCC4)cc3C(=O)N([C@H](C)CO)C[C@@H]2C)cc1 | inactive | inactive | inactive
45 | COc1ccccc1C(=O)Nc1ccc2c(c1)C(=O)N(C)[C@H]1CC[C@H](CC(=O)NCCc3ccncc3)O[C@H]1CO2 | inactive | inactive | inactive
46 | Cc1ccc(S(=O)(=O)Nc2ccc3c(c2)CC(=O)N([C@@H](C)CO)C[C@@H](C)[C@H](CN(C)C(=O)Nc2cccc4ccccc24)O3)cc1 | inactive | inactive | inactive
47 | OC[C@H]1O[C@H](O)[C@H](O)[C@@H](O)[C@@H]1O | inactive | inactive | inactive
48 | COc1ccc(S(=O)(=O)N(C)C[C@H]2Oc3ccc(NS(C)(=O)=O)cc3C(=O)N([C@H](C)CO)C[C@H]2C)cc1 | inactive | inactive | inactive
